Measured values published in patent publication US20100004180A1, “Agents for the Detection and Modulation of B-Cells and Antibodies” (priority 2008, published 2010).
Where no end group is shown, it is not given here.

What was measured:
IgM58 = assay: ELISA IgM-binding competition, polyspecific IgM58; parameters: species or system Balb/c mice; details: IgM 2 μg/ml, TBS-BT; FIG. 2B
IgM41 = assay: ELISA IgM-binding competition, polyspecific IgM41; parameters: species or system Balb/c mice; details: IgM 2 μg/ml; for inhibition of IgM41 binding to T7-PEGWT: TBS/1% BSA/0.05% Tween-20, FIG. 2A
IgM60 = assay: ELISA IgM-binding competition, polyspecific IgM60; parameters: species or system Balb/c mice; details: IgM 2 μg/ml, TBS-BT; FIG. 2C
natural IgM = assay: ELISA: inhibition of natural IgM (Nab) binding to W-determinants by indole compounds; details: in vitro; compound added into the incubation medium

Compound: Ac-PEGWN [synthetic peptide with W-determinant, homologous to T7-PEGWT, reacts with IgM41]
- inhibition of IgM58 binding to T7-RLTPR (IgM58): not
- inhibition of IgM41 binding to Flu(6)-BSA (IgM41; TBS-BT): no effect
- inhibition of IgM41 binding to NIP(31)-BSA (IgM41; TBS-BT): no effect
- inhibition of IgM41 binding to NP(24)-BSA (IgM41; TBS-BT): weakly inhibited
- inhibition of IgM41 binding to T7-PEGWT (IgM41): completely inhibited
- inhibition of IgM60 binding to T7-DLLDR by synthetic peptides (IgM60): ineffective

Compound: CC[C@H](C)[C@H](NC(=O)Cc1c[nH]c2ccccc12)C(=O)O [N-(indolylacetyl)-L-Ile]
- inhibition of IgM binding to W-determinants (natural IgM): inhibition

Compound: C[C@H](NC(=O)Cc1c[nH]c2ccccc12)C(=O)O [N-(indolylacetyl)-L-Ala]
- inhibition of IgM binding to W-determinants (natural IgM): inhibition

Compound: O=C(O)CC(NC(=O)Cc1c[nH]c2ccccc12)C(=O)O (racemic) [N-(indolylacetyl)-DL-Asp]
- inhibition of IgM binding to W-determinants (natural IgM): inhibition

Compound: Ac-RLTPR [synthetic peptide with TP-determinant, reacts with IgM58]
- inhibition of IgM58 binding to T7-RLTPR (IgM58): inhibited
- inhibition of IgM41 binding to T7-PEGWT (IgM41): No inhibition
- inhibition of IgM60 binding to T7-DLLDR by synthetic peptides (IgM60): ineffective

Compound: Ac-DLLDR [synthetic peptide with L-determinant, without DGA spacer]
- inhibition of IgM60 binding to T7-DLLDR by synthetic peptides (IgM60): weakly inhibited

Compound: Ac-DGA-DLLDR
- inhibition of IgM58 binding to T7-RLTPR (IgM58): not
- inhibition of IgM41 binding to T7-PEGWT (IgM41): No inhibition
- inhibition of IgM60 binding to T7-DLLDR by synthetic peptides (IgM60): significantly inhibited
